Assay results published in PubChem BioAssay AID278 (DTP/NCI, 2004).
Results filed as inconclusive are left out. Some entries of the source have several records that differ or are many. The other results are left out here. An entry can have further records. The records of an entry are repeats (runs, samples, wells, individuals or studies). Starred links: 1 amine or outer side, 2 acyl side, 3 side chain; linkers in the order of their positions; H or OH if unused. Positions of bridges follow the written chain, without caps; N, C: chain ends. Non-standard residues stand in square brackets, D forms with d. Residues, ends and D or L forms follow the SMILES beside them. Chains are numbered I, II in the order given. Actinocin(9to1) = Cc1c2oc3c(C)ccc(C(=O)[*:1])c3nc-2c(C(=O)[*:2])c(N)c1=O; aThr = C[C@H](O)[C@H](N)C(=O)O; NMeV = CN[C@H](C(=O)O)C(C)C; Sar = CNCC(=O)O

Test system: nude mice, A549 intrarenal xenograft, tumor weight change
Assay: NCI In Vivo Anticancer Drug Screen. Data for tumor model A549 Human Adenocarcinoma of Lung with characteristics of Type II Alveolar Epithelial cells (intrarenal inoculation) in NU/NU BALB/C (nude) mice
Conditions: endpoint: mean tumor weight change, higher = larger tumour
Protocol: The antitumor activity of compounds was measured in mice bearing transplantable tumors. Survival or tumor size were measured and the results are expressed as the measurement made in the treated group (T) divided by the measurement made in the vehicle treated control group (C). The tumor model used in this assay is A549 Human Adenocarcinoma of Lung with characteristics of Type II Alveolar Epithelial cells (intrarenal inoculation) in NU/NU BALB/C (nude) mice

[1] = dose: 50.0 mg/kg/injection, schedule: Q04DX003 (ip), vehicle: saline with Tween-80
[2] = dose: 100.0 mg/kg/injection, schedule: Q04DX003 (ip), vehicle: saline with Tween-80
[3] = dose: 50.0 mg/kg/injection, schedule: Q04DX003 (ip), vehicle: Klucel (hydroxypropylcellulose) (HPC)
[4] = dose: 200.0 mg/kg/injection, schedule: Q04DX003 (ip), vehicle: Klucel (hydroxypropylcellulose) (HPC)

## CCOc1cc2c(cc1C(C)c1ccc(OC)cc1)OCO2 (stereo not given)
dose: 150.0 mg/kg/injection, schedule: Q04DX003 (ip), vehicle: distilled water + alcohol
  T/C: 10 % of control and 40 % of control

## CC(C)N1C(=O)N(Cl)C2C1N(Cl)C(=O)N2Cl (stereo not given)
[1]
  T/C: 66 % of control and 98 % of control
[2]
  T/C: 68 % of control and 178 % of control

## Cc1ccc(C(=O)NC2C(=O)NC(C(C)C)C(=O)N3CCCC3C(=O)N(C)CC(=O)N(C)C(C(C)C)C(=O)OC2C)c2c1Oc1c(c(C(=O)NC3C(=O)NC(C(C)C)C(=O)N4CCCC4C(=O)N(C)CC(=O)N(C)C(C(C)C)C(=O)OC3C)c3nc(-c4ccccc4)c(=O)oc3c1C)N2 (stereo not given)
dose: 1.0 mg/kg/injection, schedule: Q04DX003 (ip), vehicle: water
  T/C: -36 % of control and 37 % of control

## COC(=O)NC1C(C)OC(OC2C/C=C(/C)C3C=CC4C(OC5CC(OC6CC(OC7CC(O)C(O)C(C)O7)C(OC7CC(O)C(OC)C(C)O7)C(C)O6)C(O)C(C)O5)C(C)CC(C)C4C3(C)/C(O)=C3\C(=O)OC4(CC(C)C(CO)=CC4/C=C\2C)C3=O)CC1(C)[N+](=O)[O-] (stereo not given)
dose: 75.0 mg/kg/injection, schedule: Q04DX003 (ip), vehicle: water
  T/C: 57 % of control and 99 % of control

## CC(/C=C/C=C/C=C/C=C/C=C/C(O)=C1/C(=O)C(CCC(=O)O)N(C)C1=O)=C\C(C)C(OC1CC(O)C(O)C(C)O1)C(C)C (stereo not given)
dose: 125.0 mg/kg/injection, schedule: Q04DX003 (ip), vehicle: water
  T/C: 13 % of control and 62 % of control

## O=C1CN(CO)C(=O)N1CO
dose: 100.0 mg/kg/injection, schedule: Q04DX003 (ip), vehicle: saline
  T/C: 82 % of control and 154 % of control
dose: 200.0 mg/kg/injection, schedule: Q04DX003 (ip), vehicle: saline
  T/C: 94 % of control and 162 % of control

## O=C(/C=C/c1cccnc1)/C=C/c1cccnc1
[3]
  T/C: 54 % of control and 110 % of control

## C=CCOc1cc2c(cc1C(C)c1ccc(OC)cc1)OCO2 (stereo not given)
dose: 300.0 mg/kg/injection, schedule: Q04DX003 (ip), vehicle: Klucel (hydroxypropylcellulose) (HPC)
  T/C: 23 % of control and 51 % of control

## CO[C@H](/C(C)=C/C=C/C(C)=C/c1coc(C)n1)[C@H](C)[C@H]1C[C@@H](O)[C@@]2(C)O[C@H]2/C=C/[C@@H](C)[C@@H]2C[C@@H](CC(=O)O2)C[C@H]2O[C@@H]2C(=O)O1
dose: 0.09 mg/kg/injection, schedule: Q01DX009 (ip), vehicle: other
  T/C: 1 % of control and 42 % of control
dose: 0.13 mg/kg/injection, schedule: Q01DX009 (ip), vehicle: other
  T/C: -56 % of control and 24 % of control
dose: 0.2 mg/kg/injection, schedule: Q01DX009 (ip), vehicle: other
  T/C: -56 % of control and 5 % of control

## COc1cc2c(c(OC)c1O)-c1ccc(OC)c(=O)cc1[C@@H](NC(=O)C(F)(F)F)CC2
dose: 20.0 mg/kg/injection, schedule: Q04DX003 (ip), vehicle: Klucel (hydroxypropylcellulose) (HPC)
  T/C: -78 % of control and 21 % of control

## O=C(Nc1cccnc1)c1ccc([N+](=O)[O-])s1
[1]
  T/C: 7 % of control and 92 % of control
[2]
  T/C: -12 % of control and 26 % of control
dose: 400.0 mg/kg/injection, schedule: Q04DX003 (ip), vehicle: saline with Tween-80
  T/C: 28 % of control and 75 % of control

## O=NNc1cccnc1
dose: 12.5 mg/kg/injection, schedule: Q04DX003 (ip), vehicle: water
  T/C: 81 % of control and 109 % of control
dose: 25.0 mg/kg/injection, schedule: Q04DX003 (ip), vehicle: water
  T/C: 70 % of control and 112 % of control

## CCCCCCCCCCCCN1C(C)=CS/C1=C\C=C\c1scc(C)[n+]1CCCCCCCCCCCC
dose: 3.0 mg/kg/injection, schedule: Q04DX003 (ip), vehicle: saline with Tween-80
  T/C: 57 % of control and 96 % of control

## O=C(O)CCCc1ccc(N(CCCl)CCCl)cc1
dose: 12.0 mg/kg/injection, schedule: Q04DX003 (ip), vehicle: Klucel (hydroxypropylcellulose) (HPC)
  T/C: 20 % of control and 46 % of control
dose: 18.0 mg/kg/injection, schedule: Q04DX003 (ip), vehicle: Klucel (hydroxypropylcellulose) (HPC)
  T/C: 6 % of control and 40 % of control
dose: 27.0 mg/kg/injection, schedule: Q04DX003 (ip), vehicle: Klucel (hydroxypropylcellulose) (HPC)
  T/C: -43 % of control and 28 % of control

## O=C1C(=O)c2cccnc2-c2ncccc21
dose: 5.0 mg/kg/injection, schedule: Q04DX003 (ip), vehicle: Klucel (hydroxypropylcellulose) (HPC)
  T/C: 26 % of control and 70 % of control

## Cc1c2oc3c(C)ccc(C(=O)N[C@@H]4C(=O)N[C@H](C(C)C)C(=O)N5CCC[C@H]5C(=O)N(C)CC(=O)N(C)[C@@H](C(C)C)C(=O)O[C@H]4C)c3nc-2c(C(=O)N[C@@H]2C(=O)N[C@H](C(C)C)C(=O)N3CCC[C@H]3C(=O)N(C)CC(=O)N(C)[C@@H](C(C)C)C(=O)O[C@H]2C)c(N)c1=O (I: [aThr][dV]P[Sar][NMeV] / II: [aThr][dV]P[Sar][NMeV]; ester I:1-I:C, II:1-II:C; linker I:N-II:N via Actinocin(9to1))
dose: 0.13 mg/kg/injection, schedule: Q04DX003 (ip), vehicle: saline
  T/C: 9 % of control, 30 % of control, 38 % of control
dose: 0.2 mg/kg/injection, schedule: Q04DX003 (ip), vehicle: saline
  T/C: 7 % of control, 38 % of control, 47 % of control
dose: 0.3 mg/kg/injection, schedule: Q04DX003 (ip), vehicle: saline
  T/C: -28 % of control, 21 % of control, 31 % of control

## O=P1(N(CCCl)CCCl)NCCCO1 (stereo not given)
dose: 40.0 mg/kg/injection, schedule: Q04DX003 (ip), vehicle: saline
  T/C: 26 % of control, 92 % of control, 105 % of control
dose: 60.0 mg/kg/injection, schedule: Q04DX003 (ip), vehicle: saline
  T/C: 52 % of control, 58 % of control, 85 % of control
dose: 90.0 mg/kg/injection, schedule: Q04DX003 (ip), vehicle: saline
  T/C: 42 % of control, 52 % of control, 108 % of control

## Cc1c(O)/c(=C\O)c2nc3c(=O)ccc(C(=O)NCCN(C)C)c3[nH]c2c1=O
dose: 72.0 mg/kg/injection, schedule: Q04DX003 (ip), vehicle: water
  T/C: 55 % of control and 122 % of control
dose: 200.0 mg/kg/injection, schedule: Q04DX003 (ip), vehicle: water
  T/C: 13 % of control, 59 % of control, 76 % of control

## CC1=CCCC2C1(C)CCC(C)C2(C)Cc1cc(O)ccc1O (stereo not given)
[3]
  T/C: 29 % of control and 103 % of control
[4]
  T/C: 15 % of control and 103 % of control
dose: 400.0 mg/kg/injection, schedule: Q04DX003 (ip), vehicle: Klucel (hydroxypropylcellulose) (HPC)
  T/C: 28 % of control and 152 % of control

## COc1ccc(C(C)c2cc3c(cc2OC)OCO3)cc1 (stereo not given)
[2]
  T/C: 19 % of control and 52 % of control

## O=C1C=C(N2CC2)C(=O)C(N2CC2)=C1N1CC1
dose: 50.0 micrograms/kg/injection, schedule: Q04DX003 (ip), vehicle: saline
  T/C: 36 % of control and 70 % of control
dose: 200.0 micrograms/kg/injection, schedule: Q04DX003 (ip), vehicle: saline
  T/C: 1 % of control and 30 % of control

## COc1cc2c[n+](C)c3c(c2cc1OC)Cc1cc2c(cc1-3)OCO2
dose: 37.5 mg/kg/injection, schedule: Q04DX003 (ip), vehicle: saline with Tween-80
  T/C: 27 % of control and 95 % of control
dose: 75.0 mg/kg/injection, schedule: Q04DX003 (ip), vehicle: saline with Tween-80
  T/C: 37 % of control and 75 % of control
dose: 150.0 mg/kg/injection, schedule: Q04DX003 (ip), vehicle: saline with Tween-80
  T/C: -40 % of control and 4 % of control

## Cc1cc(Br)c2nsnc2c1[N+](=O)[O-]
dose: 300.0 mg/kg/injection, schedule: Q04DX003 (ip), vehicle: saline with Tween-80
  T/C: 30 % of control and 82 % of control
dose: 600.0 mg/kg/injection, schedule: Q04DX003 (ip), vehicle: saline with Tween-80
  T/C: 13 % of control and 88 % of control

## Cc1ccc(C(=Nc2ccccc2)N=P(c2ccccc2)(c2ccccc2)c2ccccc2)cc1
dose: 25.0 mg/kg/injection, schedule: Q04DX003 (ip), vehicle: saline with Tween-80
  T/C: 78 % of control and 104 % of control
[2]
  T/C: 66 % of control and 117 % of control

## COc1cc(C)c(C2NC(=O)c3ccccc3N2)cc1C (stereo not given)
dose: 600.0 mg/kg/injection, schedule: Q04DX003 (ip), vehicle: Klucel (hydroxypropylcellulose) (HPC)
  T/C: 6 % of control and 104 % of control

## CN(Cc1cnc2nc(N)nc(N)c2n1)c1ccc(C(=O)N[C@@H](CCC(=O)O)C(=O)O)cc1
dose: 12.0 mg/kg/injection, schedule: Q04DX003 (ip), vehicle: sodium bicarbonate
  T/C: 25 % of control and 106 % of control
dose: 18.0 mg/kg/injection, schedule: Q04DX003 (ip), vehicle: sodium bicarbonate
  T/C: 7 % of control and 84 % of control

## N#CC(C#N)=NNc1ccc2cn[nH]c2c1
dose: 25.0 mg/kg/injection, schedule: Q04DX003 (ip), vehicle: Klucel (hydroxypropylcellulose) (HPC)
  T/C: 36 % of control and 186 % of control
[4]
  T/C: -53 % of control and 47 % of control
